Measurements taken from the supplement of paper PMC8728848.
Some of the results follow.

Tests used:
Assay in all cases: glycan array binding signal (z-score within array); higher = stronger binding
Conditions in all cases: glycan notation: IUPAC condensed, linker removed
[1] = biological target: Man(a1-2)Man(a1-3)[Man(a1-2)Man(a1-6)]Man(a1-6)[Man(a1-2)Man(a1-2)Man(a1-3)]Man
How it was run: (§1)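 Arrays were curated from the Consortium for Functional Glycomics database, 3228 in total, and kept only where the protein sequence was available. Binding is expressed as a within-array Z-score. This score was averaged across arrays of the same protein sequence at different concentrations or buffers and across linkers, and negative values can be read as non-binding.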

[2] = biological target: Man(a1-2)Man(a1-3)[Man(a1-2)Man(a1-6)]Man(a1-6)[Man(a1-2)Man(a1-2)Man(a1-3)]Man(b1-4)GlcNAc(b1-4)GlcNAc
How it was run: as §1

[3] = biological target: Man(a1-2)Man(a1-3)[Man(a1-6)]Man(a1-6)[Man(a1-2)Man(a1-3)]Man(b1-4)GlcNAc(b1-4)GlcNAc
How it was run: as §1

[4] = biological target: Man(a1-2)Man(a1-6)[Man(a1-3)]Man(a1-6)[Man(a1-2)Man(a1-2)Man(a1-3)]Man
How it was run: as §1

[5] = biological target: Man(a1-2)Man(a1-6)[Man(a1-3)]Man(a1-6)[Man(a1-2)Man(a1-2)Man(a1-3)]Man(b1-4)GlcNAc(b1-4)GlcNAc
How it was run: as §1

Man(a1-3)[Man(a1-6)]Man = biological target: Man(a1-3)[Man(a1-6)]Man
How it was run: as §1

[6] = biological target: Man(a1-3)[Man(a1-6)]Man(a1-6)[Man(a1-2)Man(a1-3)]Man(b1-4)GlcNAc(b1-4)GlcNAc
How it was run: as §1

[7] = biological target: Man(a1-3)[Man(a1-6)]Man(a1-6)[Man(a1-3)]Man
How it was run: as §1

[8] = biological target: Man(a1-3)[Man(a1-6)]Man(a1-6)[Man(a1-3)]Man(b1-4)GlcNAc(b1-4)GlcNAc
How it was run: as §1

[9] = biological target: Man(a1-3)[Man(a1-6)]Man(b1-4)GlcNAc(b1-4)GlcNAc
How it was run: as §1

[10] = biological target: Man(a1-3)[Man(a1-6)]Man(b1-4)GlcNAc(b1-4)[Fuc(a1-6)]GlcNAc
How it was run: as §1

Man(a1-6)Man = biological target: Man(a1-6)Man
How it was run: as §1

Man(b1-4)GlcNAc = biological target: Man(b1-4)GlcNAc
How it was run: as §1

MurNAc(b1-4)GlcNAc = biological target: MurNAc(b1-4)GlcNAc
How it was run: as §1

Neu5Ac(a2-3)Gal = biological target: Neu5Ac(a2-3)Gal
How it was run: as §1

[11] = biological target: Neu5Ac(a2-3)Gal(b1-3)GalNAc
How it was run: as §1

[12] = biological target: Neu5Ac(a2-3)Gal(b1-3)GalNAc(b1-3)Gal(a1-4)Gal(b1-4)Glc
How it was run: as §1

[13] = biological target: Neu5Ac(a2-3)Gal(b1-3)GalNAc(b1-4)[Neu5Ac(a2-3)]Gal(b1-4)Glc
How it was run: as §1

[14] = biological target: Neu5Ac(a2-3)Gal(b1-3)GalNAc(b1-4)[Neu5Ac(a2-8)Neu5Ac(a2-3)]Gal(b1-4)Glc
How it was run: as §1

[15] = biological target: Neu5Ac(a2-3)Gal(b1-3)GalNAc6S
How it was run: as §1

[16] = biological target: Neu5Ac(a2-3)Gal(b1-3)GlcNAc
How it was run: as §1

[17] = biological target: Neu5Ac(a2-3)Gal(b1-3)GlcNAc(b1-2)Man
How it was run: as §1

[18] = biological target: Neu5Ac(a2-3)Gal(b1-3)GlcNAc(b1-2)Man(a1-3)[GlcNAc(b1-4)][Neu5Ac(a2-3)Gal(b1-3)GlcNAc(b1-2)Man(a1-6)]Man(b1-4)GlcNAc(b1-4)GlcNAc
How it was run: as §1

[19] = biological target: Neu5Ac(a2-3)Gal(b1-3)GlcNAc(b1-2)Man(a1-3)[Neu5Ac(a2-3)Gal(b1-3)GlcNAc(b1-2)Man(a1-6)]Man(b1-4)GlcNAc(b1-4)GlcNAc
How it was run: as §1

[20] = biological target: Neu5Ac(a2-3)Gal(b1-3)GlcNAc(b1-3)Gal(b1-3)GlcNAc
How it was run: as §1

[21] = biological target: Neu5Ac(a2-3)Gal(b1-3)GlcNAc(b1-3)Gal(b1-4)GlcNAc
How it was run: as §1

[22] = biological target: Neu5Ac(a2-3)Gal(b1-3)GlcNAc(b1-3)GalNAc
How it was run: as §1

[23] = biological target: Neu5Ac(a2-3)Gal(b1-3)GlcNAc(b1-4)Gal(b1-4)Glc
How it was run: as §1

[24] = biological target: Neu5Ac(a2-3)Gal(b1-3)GlcNAc(b1-6)GalNAc
How it was run: as §1

[25] = biological target: Neu5Ac(a2-3)Gal(b1-3)GlcNAc6S
How it was run: as §1

[26] = biological target: Neu5Ac(a2-3)Gal(b1-3)[Fuc(a1-4)]GlcNAc
How it was run: as §1

[27] = biological target: Neu5Ac(a2-3)Gal(b1-3)[Fuc(a1-4)]GlcNAc(b1-3)Gal(b1-3)[Fuc(a1-4)]GlcNAc
How it was run: as §1

[28] = biological target: Neu5Ac(a2-3)Gal(b1-3)[Fuc(a1-4)]GlcNAc(b1-3)Gal(b1-4)[Fuc(a1-3)]GlcNAc
How it was run: as §1

[29] = biological target: Neu5Ac(a2-3)Gal(b1-3)[GlcNAc(b1-6)]GalNAc
How it was run: as §1

[30] = biological target: Neu5Ac(a2-3)Gal(b1-3)[Neu5Ac(a2-6)]GalNAc
How it was run: as §1

[31] = biological target: Neu5Ac(a2-3)Gal(b1-3)[Neu5Ac(a2-6)]GlcNAc(b1-3)[Fuc(a1-3)[Gal(b1-4)]GlcNAc(b1-6)]Gal(b1-4)Glc
How it was run: as §1

[32] = biological target: Neu5Ac(a2-3)Gal(b1-3)]Neu5Ac(a2-3)Gal(b1-4)]GlcNAc
How it was run: as §1

Neu5Ac(a2-3)Gal(b1-4)Glc = biological target: Neu5Ac(a2-3)Gal(b1-4)Glc
How it was run: as §1

[33] = biological target: Neu5Ac(a2-3)Gal(b1-4)GlcNAc
How it was run: as §1

[34] = biological target: Neu5Ac(a2-3)Gal(b1-4)GlcNAc(b1-2)Man
How it was run: as §1

[35] = biological target: Neu5Ac(a2-3)Gal(b1-4)GlcNAc(b1-2)Man(a1-3)[GlcNAc(b1-4)][Neu5Ac(a2-3)Gal(b1-4)GlcNAc(b1-2)Man(a1-6)]Man(b1-4)GlcNAc(b1-4)GlcNAc
How it was run: as §1

[36] = biological target: Neu5Ac(a2-3)Gal(b1-4)GlcNAc(b1-2)Man(a1-3)[Neu5Ac(a2-3)Gal(b1-4)GlcNAc(b1-2)Man(a1-6)]Man(b1-4)GlcNAc(b1-4)GlcNAc
How it was run: as §1

[37] = biological target: Neu5Ac(a2-3)Gal(b1-4)GlcNAc(b1-2)Man(a1-3)[Neu5Ac(a2-3)Gal(b1-4)GlcNAc(b1-2)Man(a1-6)]Man(b1-4)GlcNAc(b1-4)[Fuc(a1-6)]GlcNAc
How it was run: as §1

[38] = biological target: Neu5Ac(a2-3)Gal(b1-4)GlcNAc(b1-2)Man(a1-3)[Neu5Ac(a2-6)Gal(b1-4)GlcNAc(b1-2)Man(a1-6)]Man(b1-4)GlcNAc(b1-4)GlcNAc
How it was run: as §1

[39] = biological target: Neu5Ac(a2-3)Gal(b1-4)GlcNAc(b1-2)[Neu5Ac(a2-3)Gal(b1-4)GlcNAc(b1-4)]Man(a1-3)[GlcNAc(b1-4)][Neu5Ac(a2-3)Gal(b1-4)GlcNAc(b1-2)[Neu5Ac(a2-3)Gal(b1-4)GlcNAc(b1-6)]Man(a1-6)]Man(b1-4)GlcNAc(b1-4)GlcNAc
How it was run: as §1

B1: EULS2 M2 (Oryza sativa) (protein)
chain: MVYCRANPNYAMTARNGAVVLAPANPKDEYQHWIKDMRWSTSIKDEEGYPAFALVNKATGQAIKHSLGQSHPVRLVPYNPEVMDESVLWTESRDVGNGFRCIRMVNNIYLNFDAFHGDKYHGGVRDGTDIVLWKLCEGDSQRWKIQPYYILEQKLISEEDLNSAVDHHHHHH
glycan array binding signal (z-score) [1]: -0.277 | glycan array binding signal (z-score) [2]: -0.009 | glycan array binding signal (z-score) [3]: 1.21 | glycan array binding signal (z-score) [4]: 0.06 | glycan array binding signal (z-score) [5]: 1.17 | glycan array binding signal (z-score) (Man(a1-3)[Man(a1-6)]Man): 0.389 | glycan array binding signal (z-score) [6]: 0.276 | glycan array binding signal (z-score) [7]: 7.3 | glycan array binding signal (z-score) [8]: 3.29 | glycan array binding signal (z-score) [9]: 1.71 | glycan array binding signal (z-score) [10]: 0.966 | glycan array binding signal (z-score) (Man(a1-6)Man): 5.83 | glycan array binding signal (z-score) (Man(b1-4)GlcNAc): 0.004 | glycan array binding signal (z-score) (MurNAc(b1-4)GlcNAc): -0.291 | glycan array binding signal (z-score) (Neu5Ac(a2-3)Gal): -0.081 | glycan array binding signal (z-score) [11]: -0.21 | glycan array binding signal (z-score) [12]: 0.02 | glycan array binding signal (z-score) [13]: -0.522 | glycan array binding signal (z-score) [14]: -0.303 | glycan array binding signal (z-score) [15]: -0.012 | glycan array binding signal (z-score) [16]: -0.24 | glycan array binding signal (z-score) [17]: -0.173 | glycan array binding signal (z-score) [18]: 0.02 | glycan array binding signal (z-score) [19]: -0.092 | glycan array binding signal (z-score) [20]: -0.491 | glycan array binding signal (z-score) [21]: -0.059 | glycan array binding signal (z-score) [22]: -0.451 | glycan array binding signal (z-score) [23]: -0.656 | glycan array binding signal (z-score) [24]: -0.569 | glycan array binding signal (z-score) [25]: -0.495 | glycan array binding signal (z-score) [26]: -0.545 | glycan array binding signal (z-score) [27]: 0.084 | glycan array binding signal (z-score) [28]: -0.548 | glycan array binding signal (z-score) [29]: -0.206 | glycan array binding signal (z-score) [30]: -0.48 | glycan array binding signal (z-score) [31]: -0.432 | glycan array binding signal (z-score) [32]: -0.119 | glycan array binding signal (z-score) (Neu5Ac(a2-3)Gal(b1-4)Glc): -0.252 | glycan array binding signal (z-score) [33]: -0.584 | glycan array binding signal (z-score) [34]: 0.628 | glycan array binding signal (z-score) [35]: -0.379 | glycan array binding signal (z-score) [36]: 0.365 | glycan array binding signal (z-score) [37]: -0.323 | glycan array binding signal (z-score) [38]: 0.097 | glycan array binding signal (z-score) [39]: -0.279
